Laboratory results published in PubChem BioAssay AID1159614 (National Center for Advancing Translational Sciences (NCATS), 2016).
The whole screen tested about 45,000 compounds, of which about 65 (0.1%) were called active. The call rests on the fitted dose curve; in most records, active means well fitted activation curve with a large enough effect; inconclusive means small, poorly fitted or top-dose-only effect; inactive means no such curve, though single readings can be large or run the other way. This is one part of the list.

Molecular target: Galactocerebrosidase (Homo sapiens) (UniProt P54803)
Chain of UniProt P54803 (P54803 whole entry, looked up): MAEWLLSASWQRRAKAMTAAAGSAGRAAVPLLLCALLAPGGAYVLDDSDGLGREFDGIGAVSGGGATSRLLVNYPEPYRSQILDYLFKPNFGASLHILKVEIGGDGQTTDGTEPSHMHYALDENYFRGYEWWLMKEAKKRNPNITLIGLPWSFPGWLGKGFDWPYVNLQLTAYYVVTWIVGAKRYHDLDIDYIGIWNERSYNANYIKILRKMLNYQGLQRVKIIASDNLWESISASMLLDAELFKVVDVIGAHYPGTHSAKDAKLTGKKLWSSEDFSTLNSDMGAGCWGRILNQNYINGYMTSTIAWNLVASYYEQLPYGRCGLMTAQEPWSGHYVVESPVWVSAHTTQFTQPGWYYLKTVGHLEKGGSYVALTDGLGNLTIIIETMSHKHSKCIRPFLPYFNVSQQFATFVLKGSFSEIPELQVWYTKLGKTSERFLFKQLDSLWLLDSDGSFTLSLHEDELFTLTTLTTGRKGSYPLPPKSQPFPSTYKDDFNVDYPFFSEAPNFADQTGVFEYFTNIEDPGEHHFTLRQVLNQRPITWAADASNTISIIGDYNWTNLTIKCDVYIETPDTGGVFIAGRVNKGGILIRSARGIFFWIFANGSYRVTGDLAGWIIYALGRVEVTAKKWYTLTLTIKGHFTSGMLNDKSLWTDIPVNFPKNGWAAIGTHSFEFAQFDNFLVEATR
Assay: A Novel Cell-Based Assay to Identify Small Molecules for B -Galactocerebrosidase; further: 0% is about no effect; nearly all actives have a fitted effect of over 65% in size
Settings: 145M-Twi-hGALC-G270D cells (Twitcher mouse brain line with human GALC G270D), HMU-beta-Gal fluorescence, 48 h; series mostly up to 57.5 µM; activation: at the top concentration
Procedure, shortened: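 Brain-derived Twitcher mouse 145M-Twi cells stably expressing human GALC-G270D or wild-type GALC, treated live, then residual GALC activity read by fluorescence of HMU-b-Gal substrate (0.1 mM final) in citrate-phosphate buffer pH 5.2 with sodium taurocholate. Signal increase indicates enhancement.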

activation, inactive:
Cc1cccc(C)c1NC(=O)C1CCCN(S(=O)(=O)c2c(C)noc2/C=C/N(C)C)C1 (stereo unspecified) -14.2%
COc1ccccc1CNC(=O)c1ccc(NC(=O)N2CC(C)Sc3ccccc32)cc1 (stereo unspecified) -18.9%
CCOc1ccc(-c2cn3c(n2)sc2cc(C(=O)NCCC4=CCCCC4)ccc23)cc1 -12%
CCOc1ccc(NC(=O)CSc2nnc(CC)c(CC)n2)cc1 0.711%
CCN(CC)CCNC(=O)C1CCCN(c2nnc(C)c3c(C)n(-c4ccc(Cl)cc4)nc23)C1 (stereo unspecified) -13.6%
COc1ccc(S(=O)(=O)NCC(c2ccco2)S(=O)(=O)c2ccc(C)cc2)cc1C (stereo unspecified) -15.9%
CCOC(=O)c1cc(-c2ccc(C)cc2)n(CCC(=O)NCc2ccccc2)c1C -17.5%
COC(=O)c1ccc(NC(=O)CSc2ccc(-c3cccs3)nn2)cc1 -25.9%
Cc1cccc(OCC(=O)Nc2ccc(C(=O)OCc3cc(=O)n4nc(C5CC5)sc4n3)cc2)c1 -6.05%
Cc1ccc(-c2nc3scc(CCNS(=O)(=O)c4ccc(C)c(C)c4)n3n2)cc1 -8.1%
Cc1ccc(-c2noc(-c3cccnc3NCc3ccc(Cl)cc3)n2)cc1 -17.8%
C#CCOc1ccc(C2C(C(=O)OC)=C(C)NC3=C2C(=O)c2ccccc23)cc1OCC (stereo unspecified) -8.89%
CCOc1ccc(Sc2cc(C(=O)NCCCOC)c3ccccc3n2)cc1 -13.4%
Cc1cc(C)c(NC(=O)c2cc(CN3CCOCC3)on2)c(C)c1 -16.8%
CCc1ccc(NC(=O)C(Cc2ccccc2)NS(=O)(=O)c2ccc3c(c2)CCN3C(C)=O)cc1 (stereo unspecified) -11%
CCCc1ncc(C[n+]2ccccc2C)c(N)n1 -3.67%
COc1ccc2cc(S(=O)(=O)c3ccccc3F)c(=O)oc2c1 -4.8%
COc1ccc(-n2c(-c3ccc(F)cc3)cn3c4c(=O)n(C)c(=O)n(C)c4nc23)cc1 -9.5%
CCOc1ccc2ncc3c(-c4ccccc4)nn(CC(=O)Nc4cccc(F)c4)c3c2c1 -12.9%
Cc1ccc(C)c(N2CCN(CCCNC(=O)Cn3c(-c4cccs4)cc4ccccc43)CC2)c1 -4.82%
O=C(Cn1c(=O)oc2ccccc21)NCc1ccccc1Cl -13.2%
O=C(CSc1nc2c(c(=O)[nH]1)CCCC2)Nc1cccc(O)c1 -11.4%
COCCCNC(=O)C1CCN(c2nnc(-n3cccc3CNc3ccc(C)cc3)s2)CC1 -8.54%
Cc1cc(OCCn2c(C3CC(=O)N(Cc4ccc(F)cc4)C3)nc3ccccc32)ccc1Cl (stereo unspecified) -29.4%
COc1cc2[nH]c(=O)n(CCCC(=O)NCc3ccccc3Cl)c(=O)c2cc1OC -14.3%
CCCn1cc(S(=O)(=O)c2cccc(Cl)c2)c(=O)c2cc(F)c(N3CCN(CC)CC3)cc21 -11.1%
COc1ccccc1CNC(=O)Cn1c(=O)oc2ccccc21 -11.2%
COc1cc(C(=S)N2CCOCC2)ccc1O -15.4%
COc1ccccc1CNc1nc(-c2ccco2)nn1C(=O)c1ccccc1[N+](=O)[O-] -13%
CCCCn1c(CCNC(=O)c2ccc(F)cc2)nc2ccccc21 -5.05%
COc1ccc(-c2cc(C(F)(F)F)nc(S(=O)(=O)CCCC(=O)Nc3ccccc3C(F)(F)F)n2)cc1OC -19.8%
COc1ccc(S(=O)(=O)N2Cc3ccccc3CC2C(=O)Nc2cccc(C)c2)cc1OC (stereo unspecified) -17.7%
COc1cccc(CNC(=O)Cn2cc3c(n2)-c2c(oc(C(=O)N4CCOCC4)c2C)CC3)c1 -5.56%
O=C(CN1C(=O)C2CCCCN2c2ccc(C(=O)N3CCCC3)cc21)NCc1ccccc1 (stereo unspecified) -7.88%
COC(=O)c1ccccc1NC(=O)CSc1nc2sc3c(c2c(=O)[nH]1)CCCC3 -14.1%
COCCCNC(=O)Cn1c(=O)n(-c2cccc(C)c2)c(=O)c2c3c(sc21)CN(C(C)=O)CC3 19.1%
CCN(C(=O)CSc1nnc(-c2ccc(Cl)cc2)o1)c1ccccc1 -11.6%
CCc1cccc(C)c1NC(=O)C1CCCN(S(=O)(=O)c2cccc3nsnc23)C1 (stereo unspecified) -7.88%
CN(C)c1ccc(CNc2nc(-c3ccco3)nn2S(=O)(=O)c2ccc(Cl)cc2)cc1 -17.7%
COc1ccc(-c2nc3ccccc3o2)cc1NC(=O)c1ccc(N2CCC(C)CC2)c([N+](=O)[O-])c1 -17.4%
COc1ccc(CNC(=O)c2cc3c(=O)n(Cc4cccs4)ccc3nc2C)cc1 -12.2%
Cc1ccc2nc(N3CCN(C(=O)C4COc5ccccc5O4)CC3)sc2c1 (stereo unspecified) -17.7%
COc1ccc(/C=N/NC(=O)c2ccncc2)cc1OC -17.4%
Cc1ccnc(NS(=O)(=O)c2ccc(NC(=O)c3cc(=O)c4ccc(C)c(C)c4o3)cc2)n1 -16.2%
COC(=O)c1ccc(CSc2nc3c([nH]c4ccccc43)c(=O)n2-c2cccc(OC)c2)o1 -15.3%
Cc1ccc(C(=O)c2cn(Cc3ccc(F)cc3)c3nc(C)ccc3c2=O)cc1 3.08%
CCOC(=O)c1cc(-c2ccc(C)cc2)n(CC(=O)Nc2cccc(C(C)=O)c2)c1C -11.8%
CN(C)CCNC(=O)Cc1ccc(NC(=O)N2CCCCc3ccccc32)cc1 -8.84%
Cc1nn(Cc2ccccc2)c(C)c1NC(=O)c1cc(C(C)C)on1 10.6%
CC1(C)CC(=O)c2cc(C(=O)Nc3ccc(Br)cc3)c(=O)n(-c3ccc(Cl)cc3)c2C1 1.73%
COCCCn1c(=N)c(S(=O)(=O)c2ccccc2)cc2c(=O)n3cccc(C)c3nc21 -11.9%
COc1ccc(Nc2oc(/C=C/c3ccc(F)cc3)nc2C#N)cc1 -2.54%
Cc1ccc(C2c3cccn3CCN2S(=O)(=O)c2ccc([N+](=O)[O-])cc2)cc1 (stereo unspecified) -3.09%
COc1ccccc1N1CCN(C(=O)CCSCc2ccccc2F)CC1 -8.46%
Cc1ccccc1OCc1nc2c3cnn(-c4ccccc4Br)c3ncn2n1 -6.16%
Cc1oc(-c2ccccc2F)nc1Cn1c(SCc2ccccc2F)nc2ccncc21 -10.4%
CCn1cc2nc(SCc3cc(C)ccc3C)n(Cc3ccc(C)cc3)c(=O)c2n1 -23.9%
CCN1C(=O)c2ccccc2Sc2ccc(NC(=O)Nc3ccc(Br)c(C)c3)cc21 -9.58%
COc1ccc(-c2cc(NCc3ccc(C)cc3)n3cnnc3n2)cc1 -37.8%
COc1cccc(NC(=O)C(=O)NCCc2sc(-c3cccc(C)c3)nc2C)c1 -36.9%
COc1ccc(Nc2nc(N)nc(CSc3nc4ccccc4s3)n2)cc1 -18.5%
